Assay results reported in article PMC6919601, “Identification of Plasmodium dipeptidyl aminopeptidase allosteric inhibitors by high throughput screening” (PLoS ONE, 2019).
Among all 110,000 compounds or so, about 230 (0.21%) showed an effect of 50% or more. Some of the results follow.

molecular target: DPAP1 (Plasmodium falciparum, UniProt Q8IIJ9); assay: primary screen, percent inhibition; read by cleavage of a fluorogenic dipeptide substrate; higher = more effect of the substance; set-up: species or system P. falciparum D10 trophozoite lysates; single well
Sequence (Q8IIJ9 whole entry, looked up): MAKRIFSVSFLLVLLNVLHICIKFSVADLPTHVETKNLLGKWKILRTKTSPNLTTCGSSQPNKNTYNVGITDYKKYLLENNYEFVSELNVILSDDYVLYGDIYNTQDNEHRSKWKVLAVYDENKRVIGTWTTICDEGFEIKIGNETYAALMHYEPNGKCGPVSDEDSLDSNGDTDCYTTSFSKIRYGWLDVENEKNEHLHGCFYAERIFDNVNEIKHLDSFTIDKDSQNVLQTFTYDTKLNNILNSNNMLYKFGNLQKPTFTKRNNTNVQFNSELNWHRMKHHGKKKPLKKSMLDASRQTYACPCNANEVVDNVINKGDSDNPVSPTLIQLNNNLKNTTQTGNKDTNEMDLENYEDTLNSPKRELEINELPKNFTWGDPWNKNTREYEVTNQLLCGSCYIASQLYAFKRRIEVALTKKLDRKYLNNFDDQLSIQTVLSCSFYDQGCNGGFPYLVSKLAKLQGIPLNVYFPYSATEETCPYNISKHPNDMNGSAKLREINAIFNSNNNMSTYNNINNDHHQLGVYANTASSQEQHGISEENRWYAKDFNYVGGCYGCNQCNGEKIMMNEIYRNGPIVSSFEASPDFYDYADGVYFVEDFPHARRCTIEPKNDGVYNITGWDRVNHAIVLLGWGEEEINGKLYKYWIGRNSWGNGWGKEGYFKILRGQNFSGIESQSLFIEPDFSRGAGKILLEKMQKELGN
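Note: 30 min substrate incubation versus DMSO and 10 µM JCP410 controls.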

SMILES	% Inhibition @ 10 uM [%]
Cc1ccc2occ(CC(=O)Nc3nnc(C)s3)c2c1	1
C=C(C)[C@@H]1CC=C(CN2CCN(c3cccc(OC)c3)CC2)CC1	-1.64
O=C(O)c1ccc(Oc2ccc3c(c2)C(=O)N(c2nccs2)C3=O)cc1	-1.91
C#CCSc1nc(C)c2cc(OC)ccc2n1	-2.83
O=C(c1ccco1)N1CCN(C(=O)C23CC4CC(CC(C4)C2)C3)CC1	0.00178
COc1ccc(OCCn2c(C)c(C(=O)C(F)(F)F)c3ccccc32)cc1	5.21
O=S(=O)(Nc1cccc2ccccc12)c1ccc(Br)s1	-6.05
OCCN(Cc1ccccc1)CC1CCCCC1	2.7
COc1cc(Br)c(C2CC(=O)Nc3c2ccc2ccccc32)cc1OC (centres unmarked)	-8.95
O=c1cccc2n1CC1CC2CN(Cc2nnc(-c3cccc(Cl)c3)o2)C1 (centres unmarked)	-5.63
c1ccc(C2N(c3ccccc3)CCN2c2ccccc2)cc1	-0.0217
CCC1CCC(N2CCN(C)CC2)CC1 (centres unmarked)	-2.02
NC(=O)c1cc(S(=O)(=O)NC2CCCc3ccccc32)cs1 (centres unmarked)	-1.97
Nc1nc(O)c2[nH]c(N3CCOCC3)nc2n1	-4.41
CC/C(=N\O)C(=O)c1ccc(Br)cc1	0.266
Cc1nnc(SCc2nc(-c3cccs3)no2)n1-c1ccc(Cl)cc1	-0.45
CC(C)(C)c1ccc(S(=O)(=O)N2CCN(c3ccc(F)cc3)CC2)cc1	0.389
CCCc1cc(O)nc(SCC(=O)NCC23CC4CC(CC(C4)C2)C3)n1	-1.61
CCN(CC)c1ccc(Nc2nc(-c3c(C)nc4sccn34)cs2)cc1	-2.48
Cc1ccc(CNC(=O)CN(c2ccc(Br)cc2)S(=O)(=O)c2ccccc2)cc1	9.83
Cc1ccc(OCC(=O)Nc2cccc(Cl)c2C)c(Br)c1	0.215
CCN1CCC(=O)N(CC)c2ccccc21	1.62
COc1ccc(-c2cc(C(F)(F)F)n3ncnc3n2)cc1	1.97
Cc1cc(O)c(C2=Nc3ccccc3SC(c3ccccc3)C2)c(=O)o1 (centres unmarked)	2.94
O=C(NCc1ccccc1)C1CCN(S(=O)(=O)c2ccc(Cl)cc2)CC1	-3.26
Cc1cccc(OCC(=O)Nc2ccc(C)c(F)c2)c1	4.03

SMILES	% Inhibition @ 10 uM [%]
COc1cc(CN2CCN(Cc3ccc(F)cc3)CC2)cc(OC)c1OC	-3.13
CSc1ccc(S(=O)(=O)N(CC(=O)NCC2CCCO2)c2ccc(C)cc2)cc1 (centres unmarked)	3.46
COC(=O)c1cccc(NC(=O)CC(=O)c2ccccc2)c1	-4.58
O=C(O)CCC(=O)Nc1cccc(-c2cn3ccsc3n2)c1	-2.77
COc1ccc(S(=O)(=O)N2CCN(c3ccc(F)cc3)CC2)cc1Br	-3.37
Cc1ccc2c(c1)c1c(n2CC(O)CO)C(=O)CCC1 (centres unmarked)	0.847
Cc1ccc(C(=O)N2CCN(Cc3ccccc3)CC2)cc1C	0.361
Cc1c(C(c2ccc(C(=O)O)cc2)c2c(C)n(C)n(-c3ccccc3)c2=O)c(=O)n(-c2ccccc2)n1C	-8.37
COc1cccc2c(C)cc(NC3CCCC3)nc12	1.54
CCOc1ccccc1N1CCN(S(=O)(=O)c2ccccc2)CC1	-0.318
CC(C)(C)c1ccc(C(CC(=O)O)NC(=O)c2ccc(F)cc2)cc1 (centres unmarked)	-4.49
CS(=O)(=O)NCc1ccc(C(=O)NC2CCCCC2)cc1	-6.42
CC1CCCCN1CCNC(=O)c1ccc2nc(N3CCCCC3)sc2c1 (centres unmarked)	4.22
Cc1noc(C(=O)Nc2sc3c(c2C(N)=O)CCCC3)c1Cl	-0.0115
O=C1CC(c2ccc3c(c2)OCO3)Sc2nc3ccccc3n21 (centres unmarked)	10.6
CC1CCC(NC(=O)c2ccccc2C(=O)O)CC1 (centres unmarked)	-0.519
O=C1S/C(=C\c2ccc3c(c2)OCO3)C(=O)N1CN1CCCC1	-1.37
COc1cc(CN2CCN(C(=O)c3cccc(F)c3)CC2)cc(OC)c1O	-4.69
c1ccc2c(CN3CCCCCC3)c[nH]c2c1	3.1
Nc1ccc2nc(SCC(=O)N3CCCC3)sc2c1	-4.03
O=C(Nc1nc(-c2ccc(F)c(F)c2)cs1)c1ccccc1	1.17
CNC(=O)CN(c1ccc(C)cc1)S(=O)(=O)c1ccc(SC)cc1	-1.37
Cc1c(C(=O)NC2CCCCC2C)oc2ccc3c(c12)C(=O)CC(C)(C)O3 (centres unmarked)	-3.34
CCN(CC)C(=O)Cn1cc(SCC(=O)NC)c2ccccc21	1.93
CC(=O)c1ccc(NC(=O)c2cncc(Br)c2)cc1	-0.884
COc1ccc(NC(=O)CCCC(=O)O)cc1	-7.67

SMILES	% Inhibition @ 10 uM [%]
CN(C(=O)c1ccc(Cl)cc1Cl)c1ccccc1	0.135
O=C(COc1ccc(Cl)cc1Cl)NC1CCCC1	-2.6
CCOC(=O)c1cc(S(=O)(=O)NC2CCN(Cc3ccccc3)CC2)cn1C	-6.83
COc1ccc2cc(Br)ccc2c1CC(=O)Nc1ccncc1	-0.25
COc1cc(CN2CCN(c3ccc(Cl)cc3)CC2)cc(OC)c1OC	-3.69
O=C(Cc1ccccc1)N1CCN(Cc2ccccc2C(F)(F)F)CC1	3.47
Cc1cc(=O)n(C(C)C(=O)N2CCC3(CC2)OCCO3)c2c1c(C)nn2-c1ccccc1 (centres unmarked)	-1.74
CC(C)OCCCNC(=O)c1cc2c(s1)CS(=O)(=O)C2	-1.69
N#CC1=C(SCC(N)=O)N=C2C(=C(O)c3ccccc32)C1c1ccc(Cl)cc1 (centres unmarked)	1.35
CC(C)c1nc2ccccc2n1CCCOc1ccccc1	2.73
CSc1ncc(C(=O)O)c(N[C@@H](C)c2ccccc2)n1	-3.25
COc1cc2c(cc1OC)CN(Cc1ccc(SC)cc1)CC2	-2.81
CCCCOn1c(C)c(C(C)=O)c2c3no[n+]([O-])c3ccc21	0.983
CCC(C)NC(=O)C1CCC(=O)N1Cc1ccc(F)cc1 (centres unmarked)	-1.79
CC(C)N(CCNC(=O)C1CCCN(c2ncnc3c2nc2n3CCCCC2)C1)Cc1ccccc1 (centres unmarked)	6.14
COc1ccc(C2NCCc3[nH]cnc32)cc1 (centres unmarked)	2.4
Cc1[nH]c2ccccc2c1C1=CCNCC1	-8.68
CN(C)Cc1ccccc1Sc1ccccc1	2.32
O=C(O)c1ccccc1C(=O)Nc1cc([N+](=O)[O-])ccc1F	-0.446
Cc1ccc(-n2nc3c(C)nn(CC(=O)NCc4ccccc4)c(=O)c3c2C)c(C)c1	1.63
COc1ccc(N(CC(=O)Nc2cccc(C(F)(F)F)c2)S(=O)(=O)c2ccccc2)cc1OC	1.64
COc1cccc(-c2nn(C)c3sc(C(=O)NC(C)c4ccc5c(c4)OCCO5)cc23)c1 (centres unmarked)	1.23
CCOC(=O)N1CCN(C2CC(=O)N(c3ccc(OC)cc3)C2=O)CC1 (centres unmarked)	1.82
COc1ccc(Br)cc1/C=C1\N=C(c2ccco2)OC1=O	2.14
Cn1cc(CNC(=O)CC23CC4CC(CC(C4)C2)C3)cn1	-5.35
Cc1ccc(CNc2nc3ccc(C)cc3n3cnnc23)cc1	4.58

SMILES	% Inhibition @ 10 uM [%]
O=C(Cn1cnc2c(nnn2Cc2ccc(F)cc2)c1=O)NCC1CCCO1 (centres unmarked)	-0.431
C=CCn1c(SCC(=O)N2CCCC2)nc2scc(-c3ccc(C)o3)c2c1=O	0.674
COc1cccc(N(CC(=O)Nc2ccccc2C)S(=O)(=O)c2ccc(C)cc2)c1	-10.2
CCC(C)NC(=O)CN(C)S(=O)(=O)c1ccc2nc(C)sc2c1 (centres unmarked)	1.15
COc1cc(-c2nc(O)c3c(n2)Oc2c(C)cccc2C3)cc(OC)c1OC	-1.06
CCC(=O)c1ccc(OCCN2CCCCC2)cc1	-3.67
Nc1nc(-c2ccc(O)c(O)c2)cs1	-0.294
Cc1ccc(C(=O)N(C)Cc2ccccc2)cc1	-2.12
Cc1cccc2sc(N(CCCN(C)C)C(=O)CCc3ccccc3)nc12	3.72
CC(C)Oc1ccc(-c2cc(C(=O)Nc3ccncc3)c3ccccc3n2)cc1	0.214
CCN(CCN(C)C)CC(C)CCC=C(C)C (centres unmarked)	-5.65
CCSc1nnc(NC(=O)c2cccn(OCc3cccc(C)c3)c2=O)s1	-7.18
O=C(O)c1ccccc1C(=O)NC1CCCc2ccccc21 (centres unmarked)	-4.29
COc1cccc(OCCc2c(C)n[nH]c2C)c1	0.24
Cc1ccc(C2C(C(=O)c3ccc4c(c3)OCCO4)=C(O)C(=O)N2CCCn2ccnc2)cc1 (centres unmarked)	-2.84
OC(CNCCc1ccccc1)COCCCN1CCOCC1 (centres unmarked)	-3.85
O=C(NCCc1ccccc1Cl)c1nc(O)c2nnn(Cc3ccccc3)c2n1	-1.82
COc1ccc(N2CCN(C(=O)CN(C)S(=O)(=O)c3ccc(C)cc3)CC2)cc1	-5.35
Cc1cc(C)c(C)c(C2C(C#N)=C(N)Oc3[nH]nc(C)c32)c1C (centres unmarked)	2.42
COc1ccc(OC)c(C2CCN(S(=O)(=O)c3cc(-c4onc(C)c4C)ccc3OC)C2)c1 (centres unmarked)	0.359
CN1CCN(C(=O)COc2ccc(Cl)cc2)CC1	-4.02
COc1ccc(CCNC(=O)c2ccc3snnc3c2)c(OC)c1	3.24
OC1=C2C(=Nc3ncnn3C2c2ccc(OC(F)F)cc2)CCC1 (centres unmarked)	-1.62
Cc1cc(C)nc(NS(=O)(=O)c2ccc(NC(=O)c3ccc(F)c(F)c3)cc2)n1	7.4
CC(=O)c1coc2ccc3ccccc3c2c1=O	-2.83
COc1ccc(OC)c(C(=O)c2oc3ccc(Br)cc3c2NC(C)=O)c1	2.69
